Test results from patent US9975946B2, “Antibodies obtainable using supramolecular constructs” (AC Immune SA, priority 2004, dated 2018).
Where no end group is shown, it is not given here.

Tested on: C57BL/6 mice
Experiment: ELISA of sera from mice immunized with liposomal antigens (immunogenicity)
Settings: time course

Question: How did the “antibody response (ELISA)” value turn out when “PEG-Aβ4-11: Aβ4-11 (SEQ ID NO: 2) with N- and C-terminal PEG-lipid, reconstituted in liposomes with monophosphoryl lipid A (FRHDSGYE; not fully specified (N-terminus, C-terminus); also: reconstituted in liposomes with monophosphoryl lipid A; UniProt P05067 675-682, looked up, fragment)” was run?
Answer: slower in comparison to PEG-Aβ1-16
